{"source": "the supplement of paper PMC8728848", "assay_in_all_cases": "glycan array binding signal (z-score within array); higher = stronger binding", "conditions_in_all_cases": "glycan notation: IUPAC condensed, linker removed", "key": {"[1]": {"target": "Fuc(a1-2)Gal(b1-4)GlcNAc(b1-2)[Fuc(a1-2)Gal(b1-4)GlcNAc(b1-4)]Man(a1-3)[Fuc(a1-2)Gal(b1-4)GlcNAc(b1-2)Man(a1-6)]Man(b1-4)GlcNAc(b1-4)GlcNAc", "in_short": "(§1)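 The binding signal is a Z-score computed within each array. Data were drawn from 3228 arrays in the Consortium for Functional Glycomics database, restricted to those with a known protein sequence. Scores were averaged over arrays of the same protein sequence at different concentrations or buffers, and over linkers, and negative values can be taken as non-binding.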"}, "[2]": {"target": "Fuc(a1-2)Gal(b1-4)GlcNAc(b1-3)Gal(b1-4)GlcNAc", "in_short": "as §1"}, "[3]": {"target": "Fuc(a1-2)Gal(b1-4)GlcNAc(b1-3)Gal(b1-4)GlcNAc(b1-2)Man(a1-3)[Fuc(a1-2)Gal(b1-4)GlcNAc(b1-3)Gal(b1-4)GlcNAc(b1-2)Man(a1-6)]Man(b1-4)GlcNAc(b1-4)GlcNAc", "in_short": "as §1"}, "[4]": {"target": "Fuc(a1-2)Gal(b1-4)GlcNAc(b1-3)Gal(b1-4)GlcNAc(b1-3)Gal(b1-4)GlcNAc", "in_short": "as §1"}, "[5]": {"target": "Fuc(a1-2)Gal(b1-4)GlcNAc(b1-3)GalNAc", "in_short": "as §1"}, "[6]": {"target": "Fuc(a1-2)Gal(b1-4)GlcNAc(b1-3)[Fuc(a1-2)Gal(b1-4)GlcNAc(b1-6)]GalNAc", "in_short": "as §1"}, "[7]": {"target": "Fuc(a1-2)Gal(b1-4)GlcNAc(b1-3)[Fuc(a1-3)[Gal(b1-4)]GlcNAc(b1-6)]Gal(b1-4)Glc", "in_short": "as §1"}, "[8]": {"target": "Fuc(a1-2)Gal(b1-4)GlcNAc(b1-6)GalNAc", "in_short": "as §1"}, "[9]": {"target": "Fuc(a1-2)Gal(b1-4)GlcNAc6S", "in_short": "as §1"}, "[10]": {"target": "Fuc(a1-2)Gal(b1-4)[Fuc(a1-3)]GlcNAc", "in_short": "as §1"}, "[11]": {"target": "Fuc(a1-2)Gal(b1-4)[Fuc(a1-3)]GlcNAc(b1-2)Man(a1-3)[Fuc(a1-2)Gal(b1-4)[Fuc(a1-3)]GlcNAc(b1-2)Man(a1-6)]Man(b1-4)GlcNAc(b1-4)GlcNAc", "in_short": "as §1"}, "[12]": {"target": "Fuc(a1-2)Gal(b1-4)[Fuc(a1-3)]GlcNAc(b1-2)Man(a1-3)[Fuc(a1-2)Gal(b1-4)[Fuc(a1-3)]GlcNAc(b1-2)Man(a1-6)]Man(b1-4)GlcNAc(b1-4)[Fuc(a1-6)]GlcNAc", "in_short": "as §1"}, "[13]": {"target": "Fuc(a1-2)Gal(b1-4)[Fuc(a1-3)]GlcNAc(b1-2)[Fuc(a1-2)Gal(b1-4)[Fuc(a1-3)]GlcNAc(b1-4)]Man(a1-3)[Fuc(a1-2)Gal(b1-4)[Fuc(a1-3)]GlcNAc(b1-2)Man(a1-6)]Man(b1-4)GlcNAc(b1-4)GlcNAc", "in_short": "as §1"}, "[14]": {"target": "Fuc(a1-2)Gal(b1-4)[Fuc(a1-3)]GlcNAc(b1-3)Gal(b1-4)[Fuc(a1-3)]GlcNAc", "in_short": "as §1"}, "[15]": {"target": "Fuc(a1-2)Gal(b1-4)[Fuc(a1-3)]GlcNAc(b1-3)Gal(b1-4)[Fuc(a1-3)]GlcNAc(b1-3)Gal(b1-4)[Fuc(a1-3)]GlcNAc", "in_short": "as §1"}, "[16]": {"target": "Fuc(a1-2)Gal(b1-4)[Fuc(a1-3)]GlcNAc(b1-3)GalNAc", "in_short": "as §1"}, "[17]": {"target": "Fuc(a1-2)Gal(b1-4)[Fuc(a1-3)]GlcNAc(b1-3)[Neu5Ac(a2-6)Gal(b1-4)GlcNAc(b1-6)]Gal(b1-4)Glc", "in_short": "as §1"}, "[18]": {"target": "Fuc(a1-2)Gal3S(b1-4)GlcNAc", "in_short": "as §1"}, "[19]": {"target": "Fuc(a1-2)Gal6S(b1-3)GlcNAc", "in_short": "as §1"}, "[20]": {"target": "Fuc(a1-2)Gal6S(b1-3)GlcNAc6S", "in_short": "as §1"}, "[21]": {"target": "Fuc(a1-2)Gal6S(b1-4)Glc", "in_short": "as §1"}, "[22]": {"target": "Fuc(a1-2)Gal6S(b1-4)Glc6S", "in_short": "as §1"}, "[23]": {"target": "Fuc(a1-2)Gal6S(b1-4)GlcNAc", "in_short": "as §1"}, "[24]": {"target": "Fuc(a1-2)[Gal(a1-3)]Gal", "in_short": "as §1"}, "[25]": {"target": "Fuc(a1-2)[Gal(a1-3)]Gal(b1-3)GalNAc", "in_short": "as §1"}, "[26]": {"target": "Fuc(a1-2)[Gal(a1-3)]Gal(b1-3)GalNAc(b1-3)Gal(a1-4)Gal(b1-4)Glc", "in_short": "as §1"}, "[27]": {"target": "Fuc(a1-2)[Gal(a1-3)]Gal(b1-3)GlcNAc", "in_short": "as §1"}, "[28]": {"target": "Fuc(a1-2)[Gal(a1-3)]Gal(b1-3)GlcNAc(b1-2)Man(a1-3)[Fuc(a1-2)[Gal(a1-3)]Gal(b1-3)GlcNAc(b1-2)Man(a1-6)]Man(b1-4)GlcNAc(b1-4)GlcNAc", "in_short": "as §1"}, "[29]": {"target": "Fuc(a1-2)[Gal(a1-3)]Gal(b1-3)GlcNAc(b1-2)Man(a1-3)[Fuc(a1-2)[Gal(a1-3)]Gal(b1-3)GlcNAc(b1-2)Man(a1-6)]Man(b1-4)GlcNAc(b1-4)[Fuc(a1-6)]GlcNAc", "in_short": "as §1"}, "[30]": {"target": "Fuc(a1-2)[Gal(a1-3)]Gal(b1-3)GlcNAc(b1-3)GalNAc", "in_short": "as §1"}, "[31]": {"target": "Fuc(a1-2)[Gal(a1-3)]Gal(b1-3)GlcNAc(b1-6)GalNAc", "in_short": "as §1"}, "[32]": {"target": "Fuc(a1-2)[Gal(a1-3)]Gal(b1-4)Glc", "in_short": "as §1"}, "[33]": {"target": "Fuc(a1-2)[Gal(a1-3)]Gal(b1-4)GlcNAc", "in_short": "as §1"}, "[34]": {"target": "Fuc(a1-2)[Gal(a1-3)]Gal(b1-4)GlcNAc(b1-2)Man", "in_short": "as §1"}, "[35]": {"target": "Fuc(a1-2)[Gal(a1-3)]Gal(b1-4)GlcNAc(b1-2)Man(a1-3)[Fuc(a1-2)[Gal(a1-3)]Gal(b1-4)GlcNAc(b1-2)Man(a1-6)]Man(b1-4)GlcNAc(b1-4)GlcNAc", "in_short": "as §1"}, "[36]": {"target": "Fuc(a1-2)[Gal(a1-3)]Gal(b1-4)GlcNAc(b1-2)Man(a1-3)[Fuc(a1-2)[Gal(a1-3)]Gal(b1-4)GlcNAc(b1-2)Man(a1-6)]Man(b1-4)GlcNAc(b1-4)[Fuc(a1-6)]GlcNAc", "in_short": "as §1"}, "[37]": {"target": "Fuc(a1-2)[Gal(a1-3)]Gal(b1-4)GlcNAc(b1-3)GalNAc", "in_short": "as §1"}, "[38]": {"target": "Fuc(a1-2)[Gal(a1-3)]Gal(b1-4)GlcNAc(b1-3)[Fuc(a1-2)[Gal(a1-3)]Gal(b1-4)GlcNAc(b1-6)]GalNAc", "in_short": "as §1"}, "[39]": {"target": "Fuc(a1-2)[Gal(a1-3)]Gal(b1-4)GlcNAc(b1-6)GalNAc", "in_short": "as §1"}, "[40]": {"target": "Fuc(a1-2)[Gal(a1-3)]Gal(b1-4)[Fuc(a1-3)]Glc", "in_short": "as §1"}, "[41]": {"target": "Fuc(a1-2)[Gal(a1-3)]Gal(b1-4)[Fuc(a1-3)]GlcNAc", "in_short": "as §1"}, "[42]": {"target": "Fuc(a1-2)[Gal(a1-3)]Gal(b1-4)[Fuc(a1-3)]GlcNAc(b1-3)GalNAc", "in_short": "as §1"}, "[43]": {"target": "Fuc(a1-2)[Gal(a1-4)]Gal(b1-4)GlcNAc", "in_short": "as §1"}, "[44]": {"target": "Fuc(a1-2)[GalNAc(a1-3)]Gal", "in_short": "as §1"}, "[45]": {"target": "Fuc(a1-2)[GalNAc(a1-3)]Gal(b1-3)GalNAc(a1-3)[Fuc(a1-2)]Gal(b1-4)GlcNAc", "in_short": "as §1"}}, "note": "The other results are listed elsewhere or left out."}
{"binder": "rCNL (Clitocybe nebularis), B2ZRS9 (protein) SITPGTYNITNVAYTNRLIDLTGSNPAENTLIIGHHLNKTPSGYGNQQWTLVQLPHTTIYTMQAVNPQSYVRVRDDNLVDGAALVGSQQPTPVSIESAGNSGQFRIKIPNLGLALTLPSDANSTPIVLGEVDETSTNQLWAFESVSAV", "values": [{"measurement": "glycan array binding signal (z-score)", "setting": "[1]", "result": -0.171}, {"measurement": "glycan array binding signal (z-score)", "setting": "[2]", "result": 0.058}, {"measurement": "glycan array binding signal (z-score)", "setting": "[3]", "result": -0.199}, {"measurement": "glycan array binding signal (z-score)", "setting": "[4]", "result": 0.096}, {"measurement": "glycan array binding signal (z-score)", "setting": "[5]", "result": -0.284}, {"measurement": "glycan array binding signal (z-score)", "setting": "[6]", "result": -0.213}, {"measurement": "glycan array binding signal (z-score)", "setting": "[7]", "result": -0.23}, {"measurement": "glycan array binding signal (z-score)", "setting": "[8]", "result": -0.207}, {"measurement": "glycan array binding signal (z-score)", "setting": "[9]", "result": -0.222}, {"measurement": "glycan array binding signal (z-score)", "setting": "[10]", "result": -0.298}, {"measurement": "glycan array binding signal (z-score)", "setting": "[11]", "result": -0.311}, {"measurement": "glycan array binding signal (z-score)", "setting": "[12]", "result": -0.216}, {"measurement": "glycan array binding signal (z-score)", "setting": "[13]", "result": -0.149}, {"measurement": "glycan array binding signal (z-score)", "setting": "[14]", "result": -0.303}, {"measurement": "glycan array binding signal (z-score)", "setting": "[15]", "result": -0.201}, {"measurement": "glycan array binding signal (z-score)", "setting": "[16]", "result": -0.222}, {"measurement": "glycan array binding signal (z-score)", "setting": "[17]", "result": -0.211}, {"measurement": "glycan array binding signal (z-score)", "setting": "[18]", "result": -0.227}, {"measurement": "glycan array binding signal (z-score)", "setting": "[19]", "result": -0.216}, {"measurement": "glycan array binding signal (z-score)", "setting": "[20]", "result": -0.199}, {"measurement": "glycan array binding signal (z-score)", "setting": "[21]", "result": -0.3}, {"measurement": "glycan array binding signal (z-score)", "setting": "[22]", "result": -0.334}, {"measurement": "glycan array binding signal (z-score)", "setting": "[23]", "result": -0.345}, {"measurement": "glycan array binding signal (z-score)", "setting": "[24]", "result": -0.117}, {"measurement": "glycan array binding signal (z-score)", "setting": "[25]", "result": -0.222}, {"measurement": "glycan array binding signal (z-score)", "setting": "[26]", "result": -0.221}, {"measurement": "glycan array binding signal (z-score)", "setting": "[27]", "result": -0.115}, {"measurement": "glycan array binding signal (z-score)", "setting": "[28]", "result": -0.043}, {"measurement": "glycan array binding signal (z-score)", "setting": "[29]", "result": -0.152}, {"measurement": "glycan array binding signal (z-score)", "setting": "[30]", "result": -0.216}, {"measurement": "glycan array binding signal (z-score)", "setting": "[31]", "result": -0.193}, {"measurement": "glycan array binding signal (z-score)", "setting": "[32]", "result": -0.182}, {"measurement": "glycan array binding signal (z-score)", "setting": "[33]", "result": 0.043}, {"measurement": "glycan array binding signal (z-score)", "setting": "[34]", "result": -0.215}, {"measurement": "glycan array binding signal (z-score)", "setting": "[35]", "result": 0.138}, {"measurement": "glycan array binding signal (z-score)", "setting": "[36]", "result": -0.17}, {"measurement": "glycan array binding signal (z-score)", "setting": "[37]", "result": -0.209}, {"measurement": "glycan array binding signal (z-score)", "setting": "[38]", "result": -0.218}, {"measurement": "glycan array binding signal (z-score)", "setting": "[39]", "result": -0.218}, {"measurement": "glycan array binding signal (z-score)", "setting": "[40]", "result": -0.224}, {"measurement": "glycan array binding signal (z-score)", "setting": "[41]", "result": -0.235}, {"measurement": "glycan array binding signal (z-score)", "setting": "[42]", "result": -0.214}, {"measurement": "glycan array binding signal (z-score)", "setting": "[43]", "result": -0.294}, {"measurement": "glycan array binding signal (z-score)", "setting": "[44]", "result": 2.83}, {"measurement": "glycan array binding signal (z-score)", "setting": "[45]", "result": 2.47}]}
